From the supplement of paper PMC10338343 come the findings set out here.

± gives the standard deviation. Whole data set: some 3,000 sequences, median “pre-steady-state target cleavage rate” near 0.0079, cut for the highest 2% near 0.2. The list shows a part of the results, in another mix than the full data. A value given as a limit tells only on which side of the number the result lay.
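Note: 1 nM active piRISC with 0.1 nM target library at 33 °C single turnover.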

The test system of this assay is MILI (PIWIL2) piRISC loaded with piRNA #2 (26 nt). Description: pre-steady-state target cleavage rate (min^-1); MIWI and MILI are mouse PIWI proteins and EfPiwi is from a freshwater sponge; tags in brackets are library labels; higher = faster piRNA-guided slicing of the target. The following applies: guide: piRNA #2 5'p-UUAGGUAACCCAGUAGAUCCAGAGGA; auxiliary factor: 500 nM mouse GTSF1. The method, boiled down:
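In HEPES–potassium acetate buffer at 33 °C, […] transcribed, DNA-blocked target RNA library was mixed with 1 nM active affinity-purified piRISC carrying one synthetic guide, with or without 500 nM GTSF1 partner protein, for 0–8 or 0–960 min. Uncleaved targets were sequenced and normalised to depth and to weakly complementary targets; three trials were pooled and k3 was capped at 0.0001 min^-1. The pre-steady-state cleavage rate followed from a burst-and-steady-state fit.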
Turning to CUUAACCUCUGGAUCUACUGGGUAACGUAA, the “pre-steady-state target cleavage rate” value was found to be 0.0352 ± 0.014. Under CUUAUCCUCUGGAUCUACACCGUUACCUAA stands 0.00605 ± 0.002; under CUUAACCUCUGGUUCAACUGGGUUACCUAA, 0.117 ± 0.035; under CUUAAGGUCUGGGUCUACUGGGUUACCUAA, 0.0913 ± 0.015. On to CUUAAGUUCUGGAUCUACUGGGUUACCUAA, for which the “pre-steady-state target cleavage rate” value is 0.0903 ± 0.012. Under CUUAAGCUCUCGAUCUACUGGGAUACCUAA stands 0.0459 ± 0.013; under CUUAUCCUGUGGAUCUACUGGGUUUCCUAA, 0.0398 ± 0.015.

Turning to CUUAAGGAGUGGAUUUACUGGGUUACCUAA, the “pre-steady-state target cleavage rate” value worked out at 0.0478 ± 0.014.

CUUAUCCUCUGGAUCUACUGGGUUACCCUAA: the “pre-steady-state target cleavage rate” value stood at 0.132 ± 0.049. Under “CUUAAGCUCUGGAUCUACUGGGUUACCUAG [g2:g24:cont:t1G]” stands 0.0912 ± 0.024.

As to CUUAUCCUCUGGUUCUACUCGGUUACCUAA, the “pre-steady-state target cleavage rate” value stood at 0.0121 ± 0.0067. For CUUAAGGAGUGGAUCUACUGGGUUACCGAA, the “pre-steady-state target cleavage rate” value came to 0.00748 ± 0.0052. With CUUAAGGUCUCGUUCUACUGGGUUACCUAA, the “pre-steady-state target cleavage rate” value is 0.0124 ± 0.0075. Under CUUAAGGUUUGGAUCUACUGGGUUACCUAA stands 0.0865 ± 0.016; under CUUAAGGAGUGGAUGUACUGGGUUACCUAA, 0.026 ± 0.018. Under CUUAAGGAGAGGAUCUACUGGGGUUACCUAA stands 0.00359 ± 0.0024. Under CUUAAGGAGAGGAUUUACUGGGUUACCUAA stands 0.0136 ± 0.0065. On to CUUAAGGAGUGGAUCUACUGGGUUACCCUAA, for which the “pre-steady-state target cleavage rate” value is 0.0105 ± 0.0063.

As for CUUAACCUCUGGAUCUACUGGGUUACCGAA, the “pre-steady-state target cleavage rate” value came out at 0.139 ± 0.035. On to CUUAACCUCUGGAUCUACGGGGUUACCUAA, for which the “pre-steady-state target cleavage rate” value is 0.0813 ± 0.012. Under CUUAAGGAGAGCAUCUACUGGGUUACCUAA stands 0.0622 ± 0.024; under CUUAACCUCUGCAUCUACUGGGUUACGUAA, 0.155 ± 0.069. CUUAACGUCUGGAUCUACUGGGUUAGCUAA: the “pre-steady-state target cleavage rate” value turned out to be 0.0718 ± 0.021. Under CUUAUCCUCUGCAUCUACUGGGUUAGCUAA stands 0.145 ± 0.054; under CUUAAGGUGUGGUUCUACUGGGUUACCUAA, 0.0301 ± 0.014. As for CUUAAGGUCUGGAUCUAUGGGUUACCUAA, the “pre-steady-state target cleavage rate” value turned out to be 0.0249 ± 0.0085.

For CUUAAGCUCGGGAUCUACUGGGUUACCUAA, the “pre-steady-state target cleavage rate” value amounted to 0.0377 ± 0.025. Next, CUUAAGGAGAGGAUGUACAGGGUUACCUAA: 0.00394 ± 0.0038; CUUAAGGAGUGGAUCUACAGGGAUACCUAA: 0.0177 ± 0.0073; CUUAACCUCUGGAUCUACUGGGUUAGGUAA: 0.00918 ± 0.0056. For CUUAACCUCAGGAUCUACUGGGUUACCAAA, the “pre-steady-state target cleavage rate” value came to 0.0502 ± 0.016.

Take CUUAAGGAGUGGAAUCUACUGGGUUACCUAA: the “pre-steady-state target cleavage rate” value came to 0.00766 ± 0.0037. Under CUUAAGCUCUGGAUCUAAUGGGUUACCUAA stands 0.0186 ± 0.0042. Next, CUUAAGGUCUGGAUCUACUGGGUUAGCCUAA: 0.0884 ± 0.018; CUUAUCCUCUGGAACUACUGGGUUACCAAA: 0.13 ± 0.044. Under CUUAAGCUCUGGACUCUACUGGGUUACCUAA stands 0.0196 ± 0.0083; under CUUAAGGAGUGGAUCUACUGGGUUACGCUAA, 0.0247 ± 0.0093; under CUUAAGGAGACCUAGAUGACGGUUACCUGAA, < 0.0001. Turning to CUUAAGGUCUGGAUCAACAGGGUUACCUAA, the “pre-steady-state target cleavage rate” value is 0.063 ± 0.011. Regarding CUUAAGGACUGGAUCUACAGCGUUACCUAA, the “pre-steady-state target cleavage rate” value came to 0.0134 ± 0.006. For CUUAAGCUCUGGAUCUACUGGGGUUACCUAA, the “pre-steady-state target cleavage rate” value is 0.0152 ± 0.005.

With CUUAAGGUCUGGAUCCUACUGGGUUACCUAA, the “pre-steady-state target cleavage rate” value stood at 0.03 ± 0.011. For CUUAAGGAGUGGAUCAACUGGGUUACCUUA, the “pre-steady-state target cleavage rate” value was 0.00839 ± 0.0055. Under CUUAAGGAGAGGAUCUACUGGGUCUACCUAA stands 0.00349 ± 0.0035. For the sequence CUUAAGGUCAGGAUCUACUGGGUUUCCUAA, the “pre-steady-state target cleavage rate” value worked out at 0.0151 ± 0.0084. Next, CUUAUCCUCUGGAUCUAUUGGGUUACCUAA: 0.139 ± 0.036; CUUAAGGUCUGGAACUACUGGGUUACGUAA: 0.00872 ± 0.0071. Next, CUUAAGCUCAGGAUCUACUGGGUUACCUUA: 0.0671 ± 0.017. As to CUUAAGGUCUGGAUCUACAGGGUUACCAAA, the “pre-steady-state target cleavage rate” value came to 0.106 ± 0.017. Under CUUAAGGUCCGGAUCUACUGGGUUACCUAA stands 0.0517 ± 0.023; under CUUAAGGUGUGGAUCUACUGGGUUACGUAA, 0.00525 ± 0.0044; under CUUAUCCUCUGGAUCGUACUGGGUUACCUAA, 0.00562 ± 0.0042.

For CUUAACCUCUGGAUCUACUGUGUUACCUAA, the “pre-steady-state target cleavage rate” value worked out at 0.0349 ± 0.0087. Under CUUAAGGUCUGCAUCUACUGGGAUACCUAA stands 0.0141 ± 0.0086; under CUUAAGCUCUCGAUCUACUCGGUUACCUAA, 0.00409 ± 0.0019; under CUUAAGGCCUGGAUCUACUGGGUUACCUAA, 0.102 ± 0.019. In the case of CUUAUCCUGUGGAUCAACUGGGUUACCUAA, the “pre-steady-state target cleavage rate” value was found to be 0.0451 ± 0.0081. Next, CUUAAGGACUGGAUCUACUGGGUUACCUGAA: 0.00949 ± 0.0087; CUUAACGUCUGGAUCUACUGGGAUACCUAA: 0.0359 ± 0.0097; CUUAACCUCUGGAUCUACAGCGUUACCUAA: 0.015 ± 0.0051.

Consider CUUAAGGAGACCUAGAACAGGGUUACGUAA, for which the “pre-steady-state target cleavage rate” value was < 0.0001. Consider CUUAACCUCUGGAAGAACUGGGUUACCUAA, for which the “pre-steady-state target cleavage rate” value turned out to be 0.0271 ± 0.0098. As to CUUAAGCUCUGCAUGUACUGGGUUACCUAA, the “pre-steady-state target cleavage rate” value was found to be 0.0586 ± 0.011. Next, CUUAUCCUCUGGAUCUACUGGGUUUCGUAA: 0.171 ± 0.071. Under CUUAAGGUCUGGAUCUUGUGGGUUACCUAA stands 0.0175 ± 0.0073; under CUUAACCUCUGGUAUCUACUGGGUUACCUAA, 0.584 ± 0.19. Take CUUAAGGAGACCUAGAACUGGGAUUCCUAA: the “pre-steady-state target cleavage rate” value was < 0.0001. Under CUUAACCUCUGCAACUACUGGGUUACCUAA stands 0.0899 ± 0.015; under CUUAACCUGUGGAUCAACUGGGUUACCUAA, 0.0679 ± 0.018; under CUUAAGCUCUCGAUCUACUGGGUUACCUUA, 0.0783 ± 0.016. As to CUUAAGCUCUGGAUCUACAGGGUUAGCUAA, the “pre-steady-state target cleavage rate” value was 0.0295 ± 0.0094.
